Laboratory results published in PubChem BioAssay AID485364 (National Center for Advancing Translational Sciences (NCATS), 2010).
Screen size: about 360,000 compounds; about 11,000 (3.1%) were called active. Inconclusive results, whose numbers are uncertain, are shown with a selection of clear calls. Calls follow the shape of the dose curve; as a rule, active = well fitted inhibition curve with a large enough effect; inconclusive = small, poorly fitted or top-dose-only effect; inactive = no such curve, though single readings can be large or run the other way. No potency is given beside an inconclusive call; the fits are too rough.

Target: Schistosoma mansoni thioredoxin glutathione reductase (TGR) (UniProt Q962Y6)
Assay: qHTS Assay for the Inhibitors of Schistosoma Mansoni Peroxiredoxins; also: nearly all actives have a fitted effect of over 60% in size
Conditions: purified TGR, DTNB reduction, TNB absorbance 405 nm; activity change, negative = inhibition: at 114 µM (top of the series) unless noted
Summary of the method: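 Kinetic colorimetric format: TGR-catalysed, NADPH-driven DTNB reduction monitored via TNB absorbance. Enzyme dispensed at 20 nM; compound exposure 15 min at room temperature before reaction start.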
% is scaled to controls: 0 for no effect and ±100 for the full control effect; potency is read from the fitted curve at half-maximal effect; tags tell the direction and shape of the fitted curve.

Row | SMILES | activity change, negative = inhibition | Potency
1 | O=C(CSc1nnc(-c2ccccc2O)n1Cc1ccccc1)NNC(=O)c1ccccc1O | inactive: -3.11% | 
2 | COc1ccc(C)c2sc(NC(=O)c3ccc(S(=O)(=O)N4CCCC4)cc3)nc12 |  | inconclusive [inhibitor, single point]
3 | Cc1nnsc1C(=O)NNc1ccc(C(C)(C)C)cc1 |  | active: 35.5 µM
4 | COc1ccc(OCCSc2nc(N)cc(N)n2)cc1 | inactive: 0.419% | 
5 | Cc1ccccc1-c1ccc(C(=O)Nc2cccc(F)c2)o1 |  | inconclusive [inhibitor, partial curve]
6 | CN(CC(=O)Nc1ccccc1Cl)CC(=O)Nc1sc2c(c1C(N)=O)CCC2 |  | inconclusive [inhibitor, partial curve]
7 | O=c1[nH]c(=O)n([C@H]2C[C@H](O)[C@@H](CO)O2)cc1F |  | inconclusive [inhibitor, single point]
8 | O=C(C1COc2ccccc2O1)N1CCN(c2ccccn2)CC1 (stereo not given) |  | inconclusive [inhibitor, partial curve]
9 | CCN1CCC2(CC1)N=C(c1ccc(F)cc1)C(=S)N2C(=O)c1ccc(C(C)(C)C)cc1 |  | inconclusive [inhibitor, partial curve]
10 | NCCCn1cnc2ccccc21 |  | active: 35.5 µM
11 | O=C(Nc1ccc(Cl)cc1)[C@@H]1[C@@H]2C(=O)N(c3ccc(Cl)cc3Cl)C(=O)[C@@H]2[C@H]2C=CC=NN21 |  | inconclusive [inhibitor, partial curve]
12 | Cc1ccc(N2C(=O)NC(=O)/C(=C\c3cnc(-c4ccccc4)nc3)C2=O)cc1 |  | active: 1.58 µM
13 | CCOc1ccc(C(c2c(C)[nH][nH]c2=O)c2c(C)[nH][nH]c2=O)cc1OC |  | inconclusive [inhibitor, partial curve]
14 | COc1ccc(CCN2CC(C(=O)OCC(=O)NC(C)c3cccc(Cl)c3)CC2=O)cc1OC (stereo not given) |  | inconclusive [inhibitor, partial curve]
15 | COc1cc(OC)c(-n2cc(-c3ccc(OC)c(OC)c3)[nH]c2=S)cc1Cl |  | inconclusive [inhibitor, full curve]
16 | O=C(CN1CC(=O)Oc2ccccc21)NCc1ccco1 |  | inconclusive [inhibitor, partial curve, poor fit]
17 | O=C(Nc1nc2c(F)cccc2s1)c1ccco1 | inactive: -2.07% | 
18 | O=C1NC(=S)NC(=O)C1=Cc1cccn1-c1ccc(O)cc1 |  | inconclusive [inhibitor, partial curve]
19 | COc1ccc(OC)c(N2C(=O)NC(=O)C3(Cc4cc(C)ccc4N(C)C3)C2=O)c1 (stereo not given) |  | inconclusive [inhibitor, partial curve]
20 | O=C(O)C1C2CCC(CC2)C1C(=O)N1CCN(Cc2ccc(F)cc2)CC1 (stereo not given) |  | inconclusive [inhibitor, full curve]
21 | CCOc1ccc(NC(=O)CSc2nc3ccsc3c(=O)n2CCCCCC(=O)O)cc1 | inactive: -1.19% | 
22 | O=C1NC(=S)S/C1=C\c1coc2ccccc2c1=O |  | inconclusive [inhibitor, partial curve]
23 | Cc1cc(C)n(CCCNC(=O)c2ccc(S(=O)(=O)NCc3ccco3)cc2)n1 |  | inconclusive [inhibitor, partial curve]
24 | COc1ccc(NC(=O)c2cc([N+](=O)[O-])ccc2O)cc1 | inactive: 0% | 

Row | SMILES | activity change, negative = inhibition | Potency
25 | COc1cccc(-n2c(Cc3cc(=O)[nH]c(=O)[nH]3)nnc2SCC(=O)NC2CCCC2)c1 |  | inconclusive [inhibitor, full curve, poor fit]
26 | CCCCONc1ncnc2nonc12 | inactive: -4.58% | 
27 | COc1ccc(CCC(C)NCc2ccccc2OC)cc1 (stereo not given) |  | inconclusive [inhibitor, partial curve, poor fit]
28 | CCOC(=O)CCCCC(=O)c1[nH]c(=O)[nH]c1Cn1ccnc1 |  | inconclusive [inhibitor, partial curve]
29 | COc1ccc(C(F)(F)F)cc1N/C=C\c1nnnn1-c1ccccc1 |  | inconclusive [inhibitor, full curve, poor fit]
30 | Cc1ccc(S(=O)(=O)C(CNC(=O)COc2ccccc2)c2ccco2)cc1 (stereo not given) |  | inconclusive [inhibitor, partial curve]
31 | CC(=O)[C@@H]1[C@@H](C)N(Cc2ccccc2)C(=O)N[C@H]1c1cccc(C(F)(F)F)c1 |  | inconclusive [inhibitor, single point]
32 | Cc1noc(/C=C/c2ccccn2)c1[N+](=O)[O-] |  | inconclusive [inhibitor, full curve]
33 | Cc1[nH]c2ccccc2c1C(=O)CN1CCN(C2CCCCC2)CC1 |  | active: 39.8 µM
34 | c1ccc(COc2ccc(CNCc3cccs3)cc2)cc1 | inactive: 5.1% | 
35 | CC1(c2nnc(Cc3ccccc3)o2)CC(c2cccc([N+](=O)[O-])c2)=NO1 (stereo not given) |  | active: 44.7 µM
36 | COc1ccc(-c2ccc(C(C)=O)cc2)cc1[C@H]1[C@H]2C=CC[C@@H](C)[C@@H]2C(=O)N1Cc1ccccc1 |  | inconclusive [inhibitor, partial curve]
37 | CN(C)c1ccc(NC(=O)N2CCOCC2)cc1 | inactive: -10.6% | 
38 | CCOC(=O)c1cc(NC(=O)C2C3C=CC(O3)C2C(=O)O)cc(C(=O)OCC)c1 (stereo not given) |  | inconclusive [inhibitor, single point]
39 | O=C(O)c1ccc(Cl)c(S(=O)(=O)NCc2ccco2)c1 |  | inconclusive [inhibitor, partial curve]
40 | COc1ccc(NC(=O)CSc2nc(-c3cccc(C)c3)[nH]c2-c2ccccc2)cc1OC |  | inconclusive [inhibitor, single point]
41 | CCOc1ccc(N2C(=O)C3ON(c4ccccc4)C(c4ccco4)C3C2=O)cc1 (stereo not given) |  | inconclusive [inhibitor, partial curve]
42 | Cc1cc(/C=N/N2CCN(C)CC2)c(C)n1-c1ccc(Cl)cc1 |  | inconclusive [inhibitor, full curve]
43 | COc1ccc(CC(=O)Nc2cccc(S(=O)(=O)N3CCCC3)c2)cc1OC | inactive: 11.6% | 
44 | COc1ccc(-c2cn(-c3ccc(C)cc3)c(=O)n2CC(=O)Nc2ccc(OC)c(OC)c2)cc1 | inactive: -2.58% | 
45 | CCOC(=O)CN(C(=O)CNC(=O)c1cccs1)C(C(=O)NC1CCCCC1)c1cccs1 (stereo not given) |  | inconclusive [inhibitor, single point]
46 | Oc1ccc(CNc2cccc(F)c2F)c2cccnc12 |  | active: 0.112 µM
47 | COc1cc(N=c2ssnc2Cl)cc(OC)c1OC |  | inconclusive [inhibitor, partial curve]
48 | S=C(NCC1CCCO1)n1nnc2ccccc21 (stereo not given) | inactive: -24.6% | 

Row | SMILES | activity change, negative = inhibition | Potency
49 | COc1ccc(N2C(=O)CC(N3CCN(C(=O)c4ccco4)CC3)C2=O)cc1 (stereo not given) |  | inconclusive [inhibitor, single point]
50 | COc1ccc(N2C(=O)CSC23C(=O)N(CC(=O)NCCc2ccccc2)c2ccccc23)cc1 (stereo not given) | inactive: 2.57% | 
51 | Cc1ccc(S(=O)(=O)n2ccc(=O)[nH]2)cc1 | inactive: -2.82% | 
52 | COc1ccc(CN2CCNC(=O)C2CC(=O)N(C)Cc2nc(C)cs2)c(OC)c1 (stereo not given) |  | inconclusive [inhibitor, partial curve]
53 | C=CCN(CC=C)CC(=O)Nc1ccc(S(N)(=O)=O)cc1 | inactive: -2.38% | 
54 | COC(=O)c1sc(N2C(=O)C(O)=C(C(=O)c3ccc(C)o3)C2c2ccc(OC)c(OC)c2)nc1C (stereo not given) |  | inconclusive [inhibitor, full curve, poor fit]
55 | COc1ccc(C(C)=O)cc1CC(=O)Nc1ccc2c(c1)CCC2 | inactive: -8.65% | 
56 | O=C1C(Nc2ccccc2)=C/C(=N/S(=O)(=O)c2cccs2)c2ccccc21 |  | inconclusive [inhibitor, partial curve]
57 | Cc1oc(-c2ccc(Cl)cc2)nc1CS(=O)CC(=O)NCc1ccccn1 (stereo not given) |  | active: 39.8 µM
58 | CCCC1CC(=O)OC1(C)C(=O)CSc1n[nH]c(-c2ccccc2)n1 (stereo not given) |  | inconclusive [inhibitor, full curve, poor fit]
59 | CCOc1cc(C)c(C(C)C)cc1S(=O)(=O)N1CC(C)OC(C)C1 (stereo not given) | inactive: 3.09% | 
60 | COc1ccc(Nc2cc3n(c(=O)n2)CCc2cc(OC)c(OC)cc2-3)cc1 |  | inconclusive [inhibitor, partial curve]
61 | Cc1nonc1C1CCCN1Cc1nc(-c2ccccc2Cl)oc1C (stereo not given) |  | inconclusive [inhibitor, partial curve]
62 | O=C(NCCc1ccccc1)C(=O)NCC1CCCN1S(=O)(=O)c1ccccc1 (stereo not given) | inactive: -1.29% | 
63 | COc1ccc(Cl)cc1C(Nc1cccnc1)c1ccc2cccnc2c1O (stereo not given) |  | active: 0.1 µM
64 | O=C(NCc1ccco1)C(=O)c1cn(CC(=O)N2CCCCCC2)c2ccccc12 |  | active: 31.6 µM
65 | CCN(Cc1nc2ccccc2c(=O)[nH]1)Cc1nc2ccsc2c(=O)[nH]1 | inactive: -1.98% | 
66 | Cc1ccc(C)c(Sc2ccc(NC(=O)CCl)cc2)c1 |  | inconclusive [inhibitor, partial curve]
67 | Cc1ccc(C)n1-c1ccc(C(=O)NN=C2CCCC2)cc1 |  | inconclusive [inhibitor, partial curve]
68 | CC(C)(C)c1ccc(Cn2nnc3c(=O)[nH]c(C4CCN(C(=O)Cc5cccs5)CC4)nc32)cc1 | inactive: -11.2% | 
69 | O=C(NNC(=O)c1ccco1)c1ccccc1 |  | inconclusive [inhibitor, single point]
70 | Cc1cc(NC(=O)Nc2ccc(F)c(Cl)c2)no1 |  | inconclusive [inhibitor, single point]
